Measured values as given in PubChem BioAssay AID485294 (National Center for Advancing Translational Sciences (NCATS), 2010).
About 150 (0.041%) of roughly 370,000 compounds were called active. Inconclusive means that the source gave no clear call. Such entries were picked first, then a sample of the others. Calls come from the whole dose curve; as a rule, active = well fitted inhibition curve with a large enough effect; inconclusive = small, poorly fitted or top-dose-only effect; inactive = flat fitted curve, though single readings scatter. Potencies of inconclusive entries are left out as doubtful fits.
Note: nearly all actives have a fitted effect of over 25% in size.
Potency is the fitted concentration of half-maximal effect; tags give direction and shape of the fitted curve.

These compounds were tested against Beta-lactamase (Escherichia coli (strain K12)) (UniProt P00811) (assay: qHTS Inhibitors of AmpC Beta-Lactamase (assay with detergent)). Details: AmpC hydrolysis of nitrocefin, absorbance 480 nm, 0.01% Triton; series mostly up to 114 µM.
UniProt P00811, sequence (P00811 whole entry, looked up): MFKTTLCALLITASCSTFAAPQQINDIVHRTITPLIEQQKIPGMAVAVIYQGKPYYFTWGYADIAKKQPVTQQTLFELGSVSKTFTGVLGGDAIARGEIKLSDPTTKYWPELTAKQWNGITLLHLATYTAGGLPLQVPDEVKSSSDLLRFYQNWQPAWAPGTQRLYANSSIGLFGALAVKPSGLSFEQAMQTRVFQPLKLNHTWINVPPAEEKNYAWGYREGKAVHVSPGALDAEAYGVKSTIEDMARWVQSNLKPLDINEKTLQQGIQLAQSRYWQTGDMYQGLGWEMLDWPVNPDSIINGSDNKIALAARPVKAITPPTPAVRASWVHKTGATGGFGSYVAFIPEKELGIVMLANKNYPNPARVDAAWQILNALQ
How it was run: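 20 mM phosphate pH 7.0 + 0.01% (detergent screen) or 0.0001% Triton X-100; 5.3 nM AmpC reagent; cpd preinc 15 min RT; nitrocefin (800 uM stock) to start; A480 q20 s × 4 min; Activity was normalised to no-enzyme and no-compound control wells.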
In the case of `Cc1cccc2nc(-c3cccc(NS(=O)(=O)c4ccccc4)c3)cn12`, the Potency is reported as “inactive”. In the case of `CCn1c(Cn2nnc(-c3ccccc3)n2)nnc1SCC(=O)Nc1ccc(N(C)C)cc1`, the Potency is reported as inconclusive [inhibitor, full curve, poor fit]. For `Cc1nc(-c2ccc(F)cc2)c(CC(=O)N(C)CC(=O)Nc2ccc(F)cc2)s1`, the Potency was inconclusive [inhibitor, single point]. `COc1ccc(-n2nc3c(c2NC(=O)C24CC5CC(CC(C5)C2)C4)CS(=O)C3)cc1` (stereo unspecified) was tested, and the Potency was inconclusive [inhibitor, full curve, poor fit]. For `Cc1cc(C)cc(Oc2c(C(F)(F)F)oc3cc(OCC(=O)NC4CCCCC4)ccc3c2=O)c1`, the Potency was “inactive”. In the case of `CN=C(Nc1ccccc1OC)SC1CC(=O)N(c2ccc(C(=O)OC)cc2)C1=O` (stereo unspecified), the Potency is reported as inconclusive [inhibitor, full curve, poor fit]. With `CC(C)N1C(=O)c2ccccc2N(Cc2ccccc2)S1(=O)=O` the Potency was “inactive”. With `CC(C)NS(=O)(=O)c1ccc(OCC(=O)Nc2ccc3c(c2)OCO3)cc1` the Potency was inconclusive [inhibitor, single point]. For `CC1(c2ccccc2)CC(C)(C)N2C(=O)/C(=C3\SC(=S)NC3=O)c3cccc1c32` (stereo unspecified), the Potency was inconclusive [inhibitor, single point]. With `Cc1cc(C(F)(F)F)nc(SCC(=O)NC2CC3CCC2C3)n1` (stereo unspecified) the Potency was inconclusive [inhibitor, single point]. `CC1(C)CC(=O)C2=C(C1)N(CC1CCCO1)C(=O)C2(NC(=O)c1cccnc1)C(F)(F)F` (stereo unspecified) was tested, and the Potency was inconclusive [inhibitor, full curve, poor fit]. In the case of `N#CC1=C(N)OC2=C(C(=O)CC(c3ccco3)C2)C1c1ccc(OCc2c(F)cccc2Cl)cc1` (stereo unspecified), the Potency is reported as “inactive”. In the case of `CSCC[C@H](NC(=O)OC(C)(C)C)c1nnc(SCc2ccccc2)o1`, the Potency is reported as inconclusive [inhibitor, partial curve]. With `CCC(=O)N1CCc2cc(Br)cc(S(=O)(=O)N3CCCC(C(=O)Nc4cccc(F)c4)C3)c21` (stereo unspecified) the Potency was “inactive”. With `Oc1ccc(N=Nc2ccc3ccccc3c2)cc1` the Potency was inconclusive [inhibitor, full curve]. With `CCOC(=O)CSc1nc2ccccc2c(=O)n1Cc1ccco1` the Potency was inconclusive [inhibitor, full curve, poor fit]. For `NC(=O)Nc1ccc2c(c1)OCCO2`, the Potency was “inactive”. For `O=S1(=O)NC2c3ccccc3CC2O1` (stereo unspecified), the Potency was inconclusive [inhibitor, partial curve, poor fit]. For `COc1ccc(C2N(C(=O)c3ccccc3)CCN2C(=O)c2ccc(C)cc2)cc1` (stereo unspecified), the Potency was inconclusive [inhibitor, single point]. `O=C(NCCN1CCOCC1)c1cc(-c2ccc(F)cc2)nc2ccccc12` was tested, and the Potency was inconclusive [inhibitor, single point]. With `COc1cc(C(=O)NCC(c2ccccc2)N(C)C)ccc1OCC(=O)N1CCOCC1` (stereo unspecified) the Potency was inconclusive [inhibitor, full curve, poor fit]. With `CC(=O)OC(Cn1nc(C)cc1C)c1ccccc1` (stereo unspecified) the Potency was inconclusive [inhibitor, full curve, poor fit]. `Cc1ccc(-c2noc(CCC(=O)Nc3cc(C)ccn3)n2)cc1` was tested, and the Potency was inconclusive [inhibitor, full curve, poor fit]. `O=C1c2cccc3cccc(c23)C(=O)N1OS(=O)(=O)c1ccc(Cl)cc1` was tested, and the Potency was “inactive”. With `Cc1cccc(C)c1N1CCN(CCn2c(=S)[nH]c3ccccc3c2=O)CC1` the Potency was inconclusive [inhibitor, full curve, poor fit]. For `O=[N+]([O-])c1cccc(-c2ccc(SCc3cccnc3)nn2)c1`, the Potency was inconclusive [inhibitor, full curve, poor fit]. In the case of `Cc1ccc(C)c(N2CCN(C(=O)CCCn3c(=O)c4cccn4c4cccnc43)CC2)c1`, the Potency is reported as inconclusive [inhibitor, partial curve, poor fit]. With `COc1ccc(CCN(C)C2CCCN(C(=O)CCC(F)(F)F)C2)cc1OC` (stereo unspecified) the Potency was inconclusive [inhibitor, partial curve, poor fit]. With `CC(C(=O)Nc1ccccc1C(=O)O)n1c(C(F)(F)F)nc2ccccc21` (stereo unspecified) the Potency was inconclusive [inhibitor, full curve, poor fit]. `Cc1ccc2nc(NC(=O)Cn3nc(C)c([N+](=O)[O-])c3C)sc2c1` was tested, and the Potency was “inactive”. With `O=C(c1ccc(-c2cc(Cl)ccc2Cl)o1)N1CCOCC1` the Potency was inconclusive [inhibitor, partial curve]. In the case of `Cc1ccc(C[n+]2ccccc2)cc1`, the Potency is reported as inconclusive [inhibitor, single point]. With `Cc1onc(-c2ccccc2Cl)c1C(=O)NCc1ccccc1F` the Potency was inconclusive [inhibitor, full curve]. With `CN(C)S(=O)(=O)c1ccc(C(=O)NNC(=O)c2ccccc2-n2cccc2)cc1` the Potency was inconclusive [inhibitor, full curve, poor fit]. In the case of `COc1cccc(/C=N/NC(=O)c2cc3c(OC)cccc3[nH]2)c1OC`, the Potency is reported as inconclusive [inhibitor, full curve]. `COc1ccccc1-n1c(COc2ccccc2-c2ccccc2)nnc1SCC(=O)c1c(N)n(C)c(=O)n(C)c1=O` was tested, and the Potency was inconclusive [inhibitor, single point]. For `O=C(CSc1nc(=O)n2cc(Cl)ccc2n1)Nc1ccc2c(c1)OCO2`, the Potency was inconclusive [inhibitor, partial curve, poor fit]. For `CCCc1c(C(=O)NNc2cccc(Cl)c2)cnn1-c1ccccc1`, the Potency was “inactive”. In the case of `O=C(Nc1ccc(Cl)cc1C(F)(F)F)c1ccc(Cl)cc1`, the Potency is reported as “inactive”. `CC(=O)c1cn(CC(=O)NCC2CCCO2)c2ccccc12` (stereo unspecified) was tested, and the Potency was inconclusive [inhibitor, single point]. With `CCN(CC)C1CCCCC1NS(=O)(=O)c1ccc(Cl)cc1` (stereo unspecified) the Potency was inconclusive [inhibitor, full curve, poor fit]. For `COc1ccc(CCNC(=O)CNC(=O)c2nn(-c3ccc(OC)c(OC)c3)c(=O)c3ccccc23)cc1OC`, the Potency was inconclusive [inhibitor, full curve, poor fit]. In the case of `O=c1[nH]c(=O)n(CCC2=CCCCC2)c(O)c1C=NCc1cccnc1`, the Potency is reported as inconclusive [inhibitor, full curve, poor fit]. For `Clc1ccc(NCn2cncn2)nc1`, the Potency was inconclusive [inhibitor, partial curve]. `CCN(CC)C(=O)CSc1nc2ccc(NC(=O)CSc3nnc(COc4ccccc4C)n3C)cc2s1` was tested, and the Potency was inconclusive [inhibitor, partial curve, poor fit]. In the case of `Cc1c(-c2ccc(Cl)cc2)c(=O)oc2ccc(OC(=O)N3CCOCC3)cc12`, the Potency is reported as “inactive”. For `CC(C)(C)c1cc(NC(=O)COC(=O)c2nccnc2N)n(-c2ccccc2)n1`, the Potency was inconclusive [inhibitor, full curve]. In the case of `COc1ccc(S(=O)(=O)N(CC(=O)NCc2ccco2)c2ccccc2OC)cc1`, the Potency is reported as “inactive”. With `CC(NC(=O)CCCC1CCCCC1)c1ccc(S(N)(=O)=O)cc1` (stereo unspecified) the Potency was inconclusive [inhibitor, full curve, poor fit]. In the case of `Cc1ccccc1C(=O)Oc1cc(N)n(S(=O)(=O)c2ccccc2)n1`, the Potency is reported as inconclusive [inhibitor, full curve]. With `CC(=O)NCCn1c(SCC(=O)Nc2ccc(C)cc2)nc2ccccc2c1=O` the Potency was inconclusive [inhibitor, single point]. In the case of `Cc1ccccc1OCC(=O)NCC1CCCO1` (stereo unspecified), the Potency is reported as inconclusive [inhibitor, full curve]. With `CCCCn1c(SCC(=O)NCc2ccco2)nc2ccccc2c1=O` the Potency was inconclusive [inhibitor, full curve, poor fit]. `CSc1nc2ccccc2cc1/C=C(\C#N)c1cccc(C)c1` was tested, and the Potency was “inactive”. For `CCOC(=O)Cc1csc(NC(=O)NC2(C(F)(F)F)Oc3cc(Cl)c(Cl)cc3O2)n1`, the Potency was inconclusive [inhibitor, full curve, poor fit]. For `CCOC(=O)c1cn(CC2CC2)c2cc(F)c(F)cc2c1=O`, the Potency was “inactive”. In the case of `Cc1cn(S(=O)(=O)c2ccc(Br)cc2)cn1`, the Potency is reported as inconclusive [inhibitor, full curve, poor fit]. `O=C(NCCC1CCCCN1S(=O)(=O)c1ccccc1)C(=O)NCc1ccco1` (stereo unspecified) was tested, and the Potency was inconclusive [inhibitor, partial curve, poor fit]. In the case of `CCN1C(=O)/C(=C/C=C2\C=CN(CC)c3ccccc32)SC1=S`, the Potency is reported as inconclusive [inhibitor, partial curve, poor fit]. With `CN=C(C)c1c(O)c2ccccc2oc1=O` the Potency was “inactive”. In the case of `CC(=O)N1N=C(c2ccco2)CC1c1ccc(Br)cc1` (stereo unspecified), the Potency is reported as inconclusive [inhibitor, single point]. For `CCOC(=O)N1CCN(C(=O)CSCC(=O)Nc2nc(-c3ccccc3)cs2)CC1`, the Potency was inconclusive [inhibitor, partial curve, poor fit]. `Cc1ccc(C(=O)NNc2ncnc3c2cnn3C)cc1` was tested, and the Potency was “inactive”. In the case of `O=C(NNC(=O)c1ccccc1O)c1cccc(Br)c1`, the Potency is reported as inconclusive [inhibitor, full curve, poor fit]. For `Cc1ccc(CSc2n[nH]c(N)n2)cc1`, the Potency was “inactive”. With `CCN(CCCNC(=O)c1cc2c(Cl)nc3ccccc3c2s1)Cc1ccccc1` the Potency was inconclusive [inhibitor, single point].
